Values marked as one replicate rest on one cluster of the flow cell; about a third of the high ones do not repeat.
Tested on: ATP
Experiment: switch fluorescence ratio, 500 uM ATP over buffer (Cy3 cluster intensity, sum of 5 cycles each) (fold (ratio)); higher = stronger signal-on switching upon ATP binding; sequences stand for … in TCGTCGGCAGCGTCAGATGTGTATAAGAGACAGTTTTTTTTTTTTTTTTTTTTTTTTT…TC
Conditions: aptamer strand: ATP DNA aptamer (quencher-CACCTGGGGGAGTATTGCGGAGGAAGG + anchor), 100 nM annealed; ATP concentration: 500 uM; one replicate
Outline: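 For every switch-domain sequence, the fluorescence ratio is the mean of per-cluster values, each being summed target-cycle Cy3 intensity over summed buffer-cycle Cy3 intensity. Clusters outside 100-1000 RFU were excluded. On a modified Illumina MiSeq flow-cell, the Cy3-labelled switching-strand clusters were annealed to 100 nM quencher-labelled ATP aptamer, imaged in selection buffer and then after 15 min with 500 uM ATP at 22 °C. Five such cycles were run, with NaOH stripping and re-annealing between them.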
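Further: ATP exposure 15 min at 22 °C before imaging.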

| Sequence | switch fluorescence ratio |
| --- | --- |
| AAAGTCAGT | 1.05 |
| TATTAGCAC | 1.03 |
| ACTTAAATGA | 0.997 |
| TTGATGATGC | 0.981 |
| TAGCCGTGAC | 1 |
| CTGTTAGATG | 0.971 |
| GCAGGCTAGC | 0.936 |
| AGCTACACTA | 1.06 |
| TCAGCGCTTG | 1.01 |
| ACTATTTATC | 1.02 |
| GATGCTGGTT | 1.02 |
| CGATAAAT | 1.02 |
| AGGCGGCGGG | 1 |
| ATAGTCTGAA | 1.02 |
| TCGGATCTCA | 1.01 |
| TGACGGCAAT | 1.6 |
| CATAGGCCCA | 0.998 |
| ACGTTGTTAC | 1.16 |
| GGTTTATTCT | 1.02 |
| TTCAGGGTG | 1.09 |
| GCCCTTGCAC | 1.02 |
| AAATAGCGCC | 0.972 |

| Sequence | switch fluorescence ratio |
| --- | --- |
| TTGTTCTGAA | 0.984 |
| ACTATTCGTA | 1.01 |
| AGGGCCGTGG | 1.05 |
| TTTGAT | 0.948 |
| AGACGAACGT | 0.941 |
| AAACGTGATA | 1.06 |
| GGGGGCAAAC | 1.39 |
| CAGATGACCG | 1.06 |
| GAACGCGAT | 2.82 |
| AGCTTGTTGG | 0.976 |
| GGTACGAACA | 1.33 |
| AAGTGTGGGA | 0.989 |
| AAGATAGTTG | 0.991 |
| ACAGAACAGG | 1.1 |
| CGTTTATTAA | 1.01 |
| GCGATTGTTG | 0.992 |
| TAACGTCGAT | 1.01 |
| TCTCTGATCG | 1.02 |
| CACGGAGCTT | 1.42 |
| ACTAGATCAT | 0.997 |
| GGAGTCAGGT | 1.01 |
| TGCCGCGGAG | 1.02 |

| Sequence | switch fluorescence ratio |
| --- | --- |
| TTACTCAGCT | 1.24 |
| GATCATTTGG | 0.983 |
| TACGGACGTA | 1.01 |
| CCTGAACGGT | 1.02 |
| ACTCTCCACT | 1.15 |
| ATAAGTTGGA | 1.04 |
| GTGGGATGCA | 1.07 |
| ATGGTTCTGG | 0.972 |
| ACCAAAAGGA | 1.22 |
| CAGAGACTAA | 1.05 |
| ATTATTTACA | 1.01 |
| ACAAGCGCGG | 0.968 |
| GTCTACTTGC | 1.03 |
| CCGGCCATTT | 1.08 |
| GCGAACGGCG | 0.953 |
| TTTACTCATG | 0.965 |
| TCTAGGCAAC | 1.25 |
| TGGACACCC | 0.989 |
| AGATGGTCTC | 0.975 |
| CCGTCTACCA | 1.07 |
| ACCTTCAAAC | 1.44 |
| GTAGTTTTTA | 0.988 |

| Sequence | switch fluorescence ratio |
| --- | --- |
| GCAATGCAC | 2.03 |
| ATGTAGGTCA | 1.03 |
| ATTAGCCGTC | 1.05 |
| CAGAACTTTG | 0.999 |
| GCAGGAGAGC | 1.06 |
| AACTAGCTAC | 1.42 |
| CACTACACGG | 1.58 |
| GGGCATACGG | 1.94 |
| TGTGCCTCTG | 1.04 |
| GGGATGCTGT | 0.944 |
| TTCATTTAAG | 0.995 |
| GAGGGCACGT | 0.988 |
| TCGTGCCCGA | 0.959 |
| ATGCCCAGC | 0.962 |
| ACTAAAGCGT | 1.03 |
| TGTATCTTAG | 1.02 |
| AACGGAAATT | 0.981 |
| CGTATCCCGA | 1.02 |
| TGGCTATTA | 1.07 |
